# B1: Peptide INF2 […], biotinylated (for surface plasmon resonance) (peptide)
# peptide: not shown
# modifications: N-terminal K biotinylated in the ε-amino group
# notes: added N-terminal K (biotinylated) and two G residues as spacer; INF2, human, […] (the full N-terminal extension); also called longer peptide encompassing […]; source: synthetic peptide, bought: pepMic Co., Ltd
# Molecular target: T1, Calmodulin from bovine brain (bovine, UniProt P62157)
# T1 construct: calmodulin, bovine, purified from brain; also called purified bovine brain CaM; CaM; source: bought: Sigma-Aldrich Cat#208694, purified from bovine brain
# Assay: SPR; Biacore 3000, 25 °C; biotinylated peptides captured on a streptavidin chip; CaM injected at 13.2 nM to 9.6 µM; HBSP (10 mM HEPES pH 7.4, 150 mM NaCl, 0.005% P20) with 1 mM CaCl2; equilibrium analysis, apparent KD
# Conditions: both partners purified
binder,measurement,value
B1,binding result,binds

# Reference: paper PMC9616786 (Cellular and Molecular Life Sciences, 2022)
